Measured values taken from the RNAGym collection of RNA variant scans (doi:10.1073/pnas.2313332121).
Variants at the background level are over-represented here.

B1: TPR 5TU (parent)
chain: GGAUCUUCUCGAUCUAACAAAAAAGACAAAUCUGCCACAAAGCUUGAGAGCAUCUUCGGAUGCAGAGGCGGCAGCCUUCGGUGGCGCGAUAGCGCCAACGUUCUCAACUAUGACACGCAAAACGCGUGCUCCGUUGAAUGGAGUUUAUCAUG

Variants of: B1
Experiment: polymerase ribozyme fitness, log enrichment relative to wild type (log ratio); higher = more active; in vitro selection for triplet polymerase activity
How it was run: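 Fitness measures genotype enrichment against wild-type enrichment on a logarithmic scale, with inverse-variance-weighted averaging of replicates. The logarithm is base 2, and genotypes were kept only with ≥10 input reads and ≥1 read per output in Illumina sequencing. The sequenced libraries came from one triplicate in vitro selection round, including frozen incubation at −7 °C, of PCR-built, transcribed mutant libraries of each subunit of a heterodimeric triplet polymerase ribozyme.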

First: C85G C114A A150C
Second: G86U A106C
The “polymerase ribozyme fitness (log ratio)” value of the first is lower: no more than -4.2 for the first, -1.79 for the second.

Compared with G86A C114A, C85G A137C is lower in “polymerase ribozyme fitness (log ratio)” value: -4.1 for the first, no more than -4.2 for the second.

C85A U90A A91C A147C and G83C A122U U135C cannot be ordered by “polymerase ribozyme fitness (log ratio)” value: no more than -4.2 for the first, no more than -4.2 for the second.

Going from C85A G141C to C85A G141A, the “polymerase ribozyme fitness (log ratio)” value falls from -1.46 to -1.85.

G83U G100C and G86A U90C U102C A137G cannot be ordered by “polymerase ribozyme fitness (log ratio)” value: no more than -4.2 for the first, no more than -4.2 for the second.

Compared with G86U C93U, C85U U101G C108G is lower in “polymerase ribozyme fitness (log ratio)” value: -2.59 for the first, no more than -4.2 for the second.

First: G83C G117A
Second: C85U C96A U111A A142G
The “polymerase ribozyme fitness (log ratio)” value of the first is higher: 0.556 for the first, no more than -4.2 for the second.

Compared with G84C G126C, C85G G143U U146C U148G is lower in “polymerase ribozyme fitness (log ratio)” value: -1.54 for the first, no more than -4.2 for the second.

Compared with C85G U90G, G83A U135G G141A is higher in “polymerase ribozyme fitness (log ratio)” value: no more than -4.2 for the first, -3.78 for the second.

Going from G84U U145A to G84A U139G, the “polymerase ribozyme fitness (log ratio)” value rises from -1.53 to -0.68.

Going from G84A G136U to G83A C105U A110G U134C, the “polymerase ribozyme fitness (log ratio)” value falls from -2.81 to -3.98.

C85A U90G and G83A A113U C125A A150U cannot be ordered by “polymerase ribozyme fitness (log ratio)” value: no more than -4.2 for the first, no more than -4.2 for the second.

G84U G86A U90A G100A and C85U G126A G128U U146A cannot be ordered by “polymerase ribozyme fitness (log ratio)” value: no more than -4.2 for the first, no more than -4.2 for the second.

G84U U151A and C85G G126U U134C A137U A147U G152U cannot be ordered by “polymerase ribozyme fitness (log ratio)” value: no more than -4.2 for the first, no more than -4.2 for the second.

First: G84U C95G A122U G152C
Second: G83U A98U C105U
The “polymerase ribozyme fitness (log ratio)” value of the first is lower: -3.55 for the first, -0.156 for the second.

Going from G84A U102G A122U to G86U U135A A142U, the “polymerase ribozyme fitness (log ratio)” value falls from -2.74 to no more than -4.2.

Compared with G84A A107G G141U U148A, G83A U90C is higher in “polymerase ribozyme fitness (log ratio)” value: no more than -4.2 for the first, -3.51 for the second.

First: G83C A113C
Second: G84U G117U
The “polymerase ribozyme fitness (log ratio)” value of the first is lower: -3.35 for the first, -1.61 for the second.

G86U C87U U139C A142G and G86U C96A A98G cannot be ordered by “polymerase ribozyme fitness (log ratio)” value: no more than -4.2 for the first, no more than -4.2 for the second.

First: G86C C87G C108G
Second: G84A C118U
The “polymerase ribozyme fitness (log ratio)” value of the first is lower: no more than -4.2 for the first, -0.13 for the second.

Compared with G83U A120C G141A, G84A A97U U134A is lower in “polymerase ribozyme fitness (log ratio)” value: -0.169 for the first, -3.23 for the second.

Compared with G83A A115U, G86C C96G A142U is lower in “polymerase ribozyme fitness (log ratio)” value: -1.25 for the first, no more than -4.2 for the second.

Compared with C85G U139A, C85A G152C is higher in “polymerase ribozyme fitness (log ratio)” value: -4.19 for the first, -2.88 for the second.

G84A A91U U102G U144A and C85A A120C A121U U130C U151G cannot be ordered by “polymerase ribozyme fitness (log ratio)” value: no more than -4.2 for the first, no more than -4.2 for the second.

G86U U139A and C85A C95U C108A C129U U148A cannot be ordered by “polymerase ribozyme fitness (log ratio)” value: no more than -4.2 for the first, no more than -4.2 for the second.

U82G G84U G133U and C85U G88C U148G cannot be ordered by “polymerase ribozyme fitness (log ratio)” value: no more than -4.2 for the first, no more than -4.2 for the second.

Going from C85G C131G G152U to G83C A110G, the “polymerase ribozyme fitness (log ratio)” value rises from no more than -4.2 to -3.65.

Going from G84A A97U U146C to C85U A147G, the “polymerase ribozyme fitness (log ratio)” value falls from -0.418 to -1.25.

First: C87A C125A U148G
Second: G83C G94U
The “polymerase ribozyme fitness (log ratio)” value of the first is lower: no more than -4.2 for the first, -2.72 for the second.

Compared with G86A C105G A138U, C85U U144A is higher in “polymerase ribozyme fitness (log ratio)” value: no more than -4.2 for the first, -0.618 for the second.

First: G83C G128A
Second: G83C U101C A119G A122U U135C U145A
The “polymerase ribozyme fitness (log ratio)” value of the first is lower: -3.88 for the first, -3.51 for the second.

C85G C103A G143C and C85A C87U U101G G136U cannot be ordered by “polymerase ribozyme fitness (log ratio)” value: no more than -4.2 for the first, no more than -4.2 for the second.

G84C C123G G128A U145A and G84C A97U U139A cannot be ordered by “polymerase ribozyme fitness (log ratio)” value: no more than -4.2 for the first, no more than -4.2 for the second.

First: C85U G94A A121C A138U
Second: G86U G88A
The “polymerase ribozyme fitness (log ratio)” value of the first is higher: -4.08 for the first, no more than -4.2 for the second.

G86U G100A C131U and G86A A97G U135C cannot be ordered by “polymerase ribozyme fitness (log ratio)” value: no more than -4.2 for the first, no more than -4.2 for the second.

G83U C87A C105G A137G and G84A A113U G140U cannot be ordered by “polymerase ribozyme fitness (log ratio)” value: no more than -4.2 for the first, no more than -4.2 for the second.

U82G G141C U151G and C85U U111C C125A cannot be ordered by “polymerase ribozyme fitness (log ratio)” value: no more than -4.2 for the first, no more than -4.2 for the second.

First: C85G C114U C116A C118U G141U
Second: C85U A98G A113U U135C
The “polymerase ribozyme fitness (log ratio)” value of the first is lower: no more than -4.2 for the first, -3.59 for the second.

C85G C95A C103A and C85U A122G G140U U144G cannot be ordered by “polymerase ribozyme fitness (log ratio)” value: no more than -4.2 for the first, no more than -4.2 for the second.

C85G G92U A138U U145A and G86A C103G G133C G141U cannot be ordered by “polymerase ribozyme fitness (log ratio)” value: no more than -4.2 for the first, no more than -4.2 for the second.

C87A A119G and C85U A115C G128U cannot be ordered by “polymerase ribozyme fitness (log ratio)” value: no more than -4.2 for the first, no more than -4.2 for the second.

G83C C95A C123G G124U and C85A A91U cannot be ordered by “polymerase ribozyme fitness (log ratio)” value: no more than -4.2 for the first, no more than -4.2 for the second.
